Tests used:
Caco-2 cells [1] = settings: Caco-2 cells pretreated with 100-800 μM, then TcdB 0.001 nM to 5 nM; vs control buffer
Caco-2 cells [2] = settings: Caco-2 cells pretreated, TcdB 18 h

In the case of `CC1(C)[C@@H](O[C@H]2O[C@H](C(=O)O)[C@@H](O)[C@H](O)[C@H]2O[C@@H]2O[C@H](C(=O)O)[C@@H](O)[C@H](O)[C@H]2O)CC[C@]2(C)[C@H]3C(=O)C=C4[C@@H]5C[C@@](C)(C(=O)O)CC[C@]5(C)CC[C@@]4(C)[C@]3(C)CC[C@@H]12` [glycyrrhizin], the caspase activation (Caco-2 cells [1]) is reported as “reduced caspase activation” and the “onset of TcdB-induced cell rounding” value (Caco-2 cells [2]) is reported as “delayed the onset”.
